# Test results published in the supplement of paper PMC8728848.
# The list shows a part of the results.
# Legend:
# Assay in all cases: glycan array binding signal (z-score within array); higher = stronger binding
# Settings in all cases: glycan notation: IUPAC condensed, linker removed
# [1] = target: Man(a1-2)Man(a1-3)[Man(a1-6)]Man(a1-6)[Man(a1-2)Man(a1-3)]Man(b1-4)GlcNAc(b1-4)GlcNAc
# Outline: (§1)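 Columns mapping to the same glycan were averaged after glycan names were converted to IUPAC-condensed notation. The data come from 3228 arrays in the Consortium for Functional Glycomics database, limited to those with an available protein sequence. Binding is reported as a within-array Z-score averaged across arrays of one protein sequence and across linkers.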
# [2] = target: Man(a1-2)Man(a1-6)[Man(a1-3)]Man(a1-6)[Man(a1-2)Man(a1-2)Man(a1-3)]Man
# Outline: as §1
# [3] = target: Man(a1-2)Man(a1-6)[Man(a1-3)]Man(a1-6)[Man(a1-2)Man(a1-2)Man(a1-3)]Man(b1-4)GlcNAc(b1-4)GlcNAc
# Outline: as §1
# [4] = target: Man(a1-3)[Man(a1-6)]Man
# Outline: as §1
# [5] = target: Man(a1-3)[Man(a1-6)]Man(a1-6)[Man(a1-2)Man(a1-3)]Man(b1-4)GlcNAc(b1-4)GlcNAc
# Outline: as §1
# [6] = target: Man(a1-3)[Man(a1-6)]Man(a1-6)[Man(a1-3)]Man
# Outline: as §1
# [7] = target: Man(a1-3)[Man(a1-6)]Man(a1-6)[Man(a1-3)]Man(b1-4)GlcNAc(b1-4)GlcNAc
# Outline: as §1
# [8] = target: Man(a1-3)[Man(a1-6)]Man(b1-4)GlcNAc(b1-4)GlcNAc
# Outline: as §1
# [9] = target: Man(a1-6)Man
# Outline: as §1
# [10] = target: Man(b1-4)GlcNAc
# Outline: as §1
# [11] = target: Neu5Ac(a2-3)Gal
# Outline: as §1
# [12] = target: Neu5Ac(a2-3)Gal(b1-3)GalNAc
# Outline: as §1
# [13] = target: Neu5Ac(a2-3)Gal(b1-3)GalNAc(b1-3)Gal(a1-4)Gal(b1-4)Glc
# Outline: as §1
# [14] = target: Neu5Ac(a2-3)Gal(b1-3)GalNAc(b1-4)[Neu5Ac(a2-3)]Gal(b1-4)Glc
# Outline: as §1
# [15] = target: Neu5Ac(a2-3)Gal(b1-3)GalNAc(b1-4)[Neu5Ac(a2-8)Neu5Ac(a2-3)]Gal(b1-4)Glc
# Outline: as §1
# [16] = target: Neu5Ac(a2-3)Gal(b1-3)GalNAc6S
# Outline: as §1
# [17] = target: Neu5Ac(a2-3)Gal(b1-3)GlcNAc
# Outline: as §1
# [18] = target: Neu5Ac(a2-3)Gal(b1-3)GlcNAc(b1-3)Gal(b1-3)GlcNAc
# Outline: as §1
# [19] = target: Neu5Ac(a2-3)Gal(b1-3)GlcNAc(b1-3)Gal(b1-4)GlcNAc
# Outline: as §1
# [20] = target: Neu5Ac(a2-3)Gal(b1-3)GlcNAc(b1-3)GalNAc
# Outline: as §1
# [21] = target: Neu5Ac(a2-3)Gal(b1-3)GlcNAc6S
# Outline: as §1
# [22] = target: Neu5Ac(a2-3)Gal(b1-3)[Fuc(a1-4)]GlcNAc
# Outline: as §1
# [23] = target: Neu5Ac(a2-3)Gal(b1-3)[Fuc(a1-4)]GlcNAc(b1-3)Gal(b1-3)[Fuc(a1-4)]GlcNAc
# Outline: as §1
# [24] = target: Neu5Ac(a2-3)Gal(b1-3)[Fuc(a1-4)]GlcNAc(b1-3)Gal(b1-4)[Fuc(a1-3)]GlcNAc
# Outline: as §1
# [25] = target: Neu5Ac(a2-3)Gal(b1-3)[Neu5Ac(a2-3)Gal(b1-4)]GlcNAc
# Outline: as §1
# [26] = target: Neu5Ac(a2-3)Gal(b1-3)[Neu5Ac(a2-6)]GalNAc
# Outline: as §1
# [27] = target: Neu5Ac(a2-3)Gal(b1-4)Glc
# Outline: as §1
# [28] = target: Neu5Ac(a2-3)Gal(b1-4)GlcNAc
# Outline: as §1
# [29] = target: Neu5Ac(a2-3)Gal(b1-4)GlcNAc(b1-2)Man(a1-3)[GlcNAc(b1-2)Man(b1-4)GlcNAc(b1-2)Man(a1-6)]Man(b1-4)GlcNAc(b1-4)GlcNAc
# Outline: as §1
# [30] = target: Neu5Ac(a2-3)Gal(b1-4)GlcNAc(b1-2)Man(a1-3)[Neu5Ac(a2-6)Gal(b1-4)GlcNAc(b1-2)Man(a1-6)]Man(b1-4)GlcNAc(b1-4)GlcNAc
# Outline: as §1
# [31] = target: Neu5Ac(a2-3)Gal(b1-4)GlcNAc(b1-3)Gal
# Outline: as §1
# [32] = target: Neu5Ac(a2-3)Gal(b1-4)GlcNAc(b1-3)Gal(b1-3)GlcNAc
# Outline: as §1
# [33] = target: Neu5Ac(a2-3)Gal(b1-4)GlcNAc(b1-3)Gal(b1-4)GlcNAc
# Outline: as §1
# [34] = target: Neu5Ac(a2-3)Gal(b1-4)GlcNAc(b1-3)Gal(b1-4)GlcNAc(b1-3)Gal(b1-4)GlcNAc
# Outline: as §1
# [35] = target: Neu5Ac(a2-3)Gal(b1-4)GlcNAc(b1-3)Gal(b1-4)[Fuc(a1-3)]GlcNAc
# Outline: as §1
# [36] = target: Neu5Ac(a2-3)Gal(b1-4)GlcNAc(b1-3)GalNAc
# Outline: as §1
# [37] = target: Neu5Ac(a2-3)Gal(b1-4)GlcNAc(b1-6)[Gal(b1-3)]GalNAc
# Outline: as §1
# [38] = target: Neu5Ac(a2-3)Gal(b1-4)GlcNAc(b1-6)[Neu5Ac(a2-3)Gal(b1-3)]GalNAc
# Outline: as §1
# [39] = target: Neu5Ac(a2-3)Gal(b1-4)GlcNAc6S
# Outline: as §1
# [40] = target: Neu5Ac(a2-3)Gal(b1-4)[Fuc(a1-3)]GlcNAc
# Outline: as §1
# [41] = target: Neu5Ac(a2-3)Gal(b1-4)[Fuc(a1-3)]GlcNAc(b1-3)Gal
# Outline: as §1
# [42] = target: Neu5Ac(a2-3)Gal(b1-4)[Fuc(a1-3)]GlcNAc(b1-3)Gal(b1-4)GlcNAc
# Outline: as §1
# [43] = target: Neu5Ac(a2-3)Gal(b1-4)[Fuc(a1-3)]GlcNAc(b1-3)Gal(b1-4)[Fuc(a1-3)]GlcNAc(b1-3)Gal(b1-4)[Fuc(a1-3)]GlcNAc
# Outline: as §1
# [44] = target: Neu5Ac(a2-3)Gal(b1-4)[Fuc(a1-3)]GlcNAc(b1-3)GalNAc
# Outline: as §1
# [45] = target: Neu5Ac(a2-3)Gal(b1-4)[Fuc(a1-3)]GlcNAc(b1-6)[Gal(b1-3)]GalNAc
# Outline: as §1
# [46] = target: Neu5Ac(a2-3)Gal(b1-4)[Fuc(a1-3)]GlcNAc6S
# Outline: as §1
# [47] = target: Neu5Ac(a2-3)Gal6S(b1-4)GlcNAc
# Outline: as §1
# [48] = target: Neu5Ac(a2-3)Gal6S(b1-4)[Fuc(a1-3)]GlcNAc
# Outline: as §1
# [49] = target: Neu5Ac(a2-3)GalNAc
# Outline: as §1
# [50] = target: Neu5Ac(a2-3)GalNAc(b1-4)GlcNAc
# Outline: as §1
binder,measurement,setting,value
"CV-2L (Chromobacterium violaceum), Q7NX84 (protein) MAQQGVFTLPARINFGVTVLVNSAATQHVEIFVDNEPRAAFSGVGTGDNNLGTKVINSGSGNVRVQITANGRQSDLVSSQLVLANKLNLAVVGSEDGTDMDYNDSIVILNWPLG",glycan array binding signal (z-score),[1],-0.109
same,glycan array binding signal (z-score),[2],0.854
same,glycan array binding signal (z-score),[3],0.659
same,glycan array binding signal (z-score),[4],1.18
same,glycan array binding signal (z-score),[5],0.839
same,glycan array binding signal (z-score),[6],0.352
same,glycan array binding signal (z-score),[7],0.347
same,glycan array binding signal (z-score),[8],0.151
same,glycan array binding signal (z-score),[9],-0.248
same,glycan array binding signal (z-score),[10],-0.329
same,glycan array binding signal (z-score),[11],-0.352
same,glycan array binding signal (z-score),[12],-0.338
same,glycan array binding signal (z-score),[13],-0.329
same,glycan array binding signal (z-score),[14],-0.335
same,glycan array binding signal (z-score),[15],-0.322
same,glycan array binding signal (z-score),[16],-0.347
same,glycan array binding signal (z-score),[17],-0.352
same,glycan array binding signal (z-score),[18],-0.345
same,glycan array binding signal (z-score),[19],-0.348
same,glycan array binding signal (z-score),[20],-0.33
same,glycan array binding signal (z-score),[21],-0.344
same,glycan array binding signal (z-score),[22],1.87
same,glycan array binding signal (z-score),[23],1.77
same,glycan array binding signal (z-score),[24],0.616
same,glycan array binding signal (z-score),[25],-0.322
same,glycan array binding signal (z-score),[26],-0.316
same,glycan array binding signal (z-score),[27],-0.332
same,glycan array binding signal (z-score),[28],-0.339
same,glycan array binding signal (z-score),[29],-0.337
same,glycan array binding signal (z-score),[30],-0.345
same,glycan array binding signal (z-score),[31],-0.251
same,glycan array binding signal (z-score),[32],-0.339
same,glycan array binding signal (z-score),[33],-0.323
same,glycan array binding signal (z-score),[34],-0.354
same,glycan array binding signal (z-score),[35],-0.359
same,glycan array binding signal (z-score),[36],-0.347
same,glycan array binding signal (z-score),[37],-0.336
same,glycan array binding signal (z-score),[38],-0.338
same,glycan array binding signal (z-score),[39],-0.326
same,glycan array binding signal (z-score),[40],-0.318
same,glycan array binding signal (z-score),[41],-0.337
same,glycan array binding signal (z-score),[42],-0.308
same,glycan array binding signal (z-score),[43],-0.301
same,glycan array binding signal (z-score),[44],-0.303
same,glycan array binding signal (z-score),[45],-0.335
same,glycan array binding signal (z-score),[46],-0.307
same,glycan array binding signal (z-score),[47],-0.331
same,glycan array binding signal (z-score),[48],-0.346
same,glycan array binding signal (z-score),[49],-0.336
same,glycan array binding signal (z-score),[50],-0.342
